Source: PubChem BioAssay AID488969 (Vanderbilt High Throughput Screening Facility, 2010)
The full ranking holds about 110,000 compounds; the median of “z-score” is about -0.1, and the highest 2% start at about 2. The list shows a part of the results. The source made the active and inactive calls.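 How the source made its calls: active means z-score in the third read window above 3 or below -3; inactive means the rest.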

What follows are compounds tested against Metabotropic glutamate receptor 8 (Rattus norvegicus) (UniProt P70579) (assay: rat mGluR8 modulators via GIRK flux, primary screen, cell-based, thallium flux, HTS (AID 488969)). Conditions: HEK293 rat mGluR8, GIRK (G protein-gated inwardly rectifying potassium channel) thallium flux, FluoZin2; at 10 µM; stronger effect = higher value; submaximal glutamate (EC20) added with thallium.
Sequence of UniProt P70579 (P70579 whole entry, looked up): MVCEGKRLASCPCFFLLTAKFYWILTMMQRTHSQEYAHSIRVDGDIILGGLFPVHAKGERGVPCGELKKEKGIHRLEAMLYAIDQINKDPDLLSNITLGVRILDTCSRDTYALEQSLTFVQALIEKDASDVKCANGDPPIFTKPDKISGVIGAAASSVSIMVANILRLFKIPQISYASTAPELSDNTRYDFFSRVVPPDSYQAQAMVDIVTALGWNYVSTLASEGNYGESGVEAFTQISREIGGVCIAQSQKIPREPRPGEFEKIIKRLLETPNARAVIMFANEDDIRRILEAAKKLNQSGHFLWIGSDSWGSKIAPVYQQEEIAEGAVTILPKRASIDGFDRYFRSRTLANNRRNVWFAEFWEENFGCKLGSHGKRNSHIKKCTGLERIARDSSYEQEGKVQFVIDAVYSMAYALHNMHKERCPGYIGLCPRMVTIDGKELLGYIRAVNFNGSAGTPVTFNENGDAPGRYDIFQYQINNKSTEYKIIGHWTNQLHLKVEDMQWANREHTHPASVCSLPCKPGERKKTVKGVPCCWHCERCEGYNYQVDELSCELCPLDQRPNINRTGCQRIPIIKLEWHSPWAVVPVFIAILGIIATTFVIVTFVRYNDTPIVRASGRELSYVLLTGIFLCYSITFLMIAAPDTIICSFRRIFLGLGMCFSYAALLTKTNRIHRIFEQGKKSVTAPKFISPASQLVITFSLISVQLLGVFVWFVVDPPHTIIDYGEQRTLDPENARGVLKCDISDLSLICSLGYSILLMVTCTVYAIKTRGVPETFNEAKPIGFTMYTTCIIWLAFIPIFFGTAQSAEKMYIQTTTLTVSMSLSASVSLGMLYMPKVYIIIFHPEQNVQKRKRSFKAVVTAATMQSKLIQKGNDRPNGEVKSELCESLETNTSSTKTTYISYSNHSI

Row | Compound | z-score
1 | Cc1ccc(/C=N/n2cnnc2)s1 | 0.0344
2 | O=C(NCC1CCC(C(=O)O)CC1)OCc1ccccc1 (stereo not drawn) | -0.155
3 | COC(=O)c1ccc(C2C(C#N)=C(C)NC3=C2C(=O)CC(C)(C)C3)cc1 (stereo not drawn) | -0.376
4 | CCOc1ccc(N2CC(C(=O)Nc3cc(C)on3)CC2=O)cc1 (stereo not drawn) | -0.198
5 | COc1ccc(C2CC(c3ccc(Cl)cc3)n3nc(N)nc3N2)cc1 (stereo not drawn) | 2.61
6 | CC1CCN(C(=O)CSc2nc3[nH]ncc3c(=O)[nH]2)CC1 | -0.218
7 | Cc1ccc2nc(/C=C/c3cccc(F)c3)ccc2c1 | -0.172
8 | O=C(COc1cccc(Cl)c1Cl)Nc1ccc2c(c1)CCC2 | -0.118
9 | Cc1cn2c(nc(=O)c3cccnc32)s1 | -0.18
10 | O=[N+]([O-])c1cc(-c2cnc3ccccc3n2)ccc1Oc1ccc(F)cc1 | 1.02
11 | O=C(CN1C(=O)C2CCc3[nH]c4ccccc4c3C2C1=O)N1CCCC1 (stereo not drawn) | -0.198
12 | O=C(CN1CCCC(O)C1)N1c2ccccc2Sc2ccc(C(F)(F)F)cc21 (stereo not drawn) | -0.253
13 | CCOC(=O)c1cnc2ccc(C(=O)OC)cc2c1NCCN1CCOCC1 | 0.687
14 | Nc1nc(-c2ccc(Br)cc2)cc(C(F)(F)F)n1 | 0.218
15 | O=C(COC(=O)c1ccc2[nH]c3c(c2c1)CCCC3)Nc1ccc(Cl)cc1Cl | 0.0235
16 | COC(=O)CSc1nc(-c2ccccc2)c2c(c1C#N)CCCC2 | -0.0951
17 | CN(Cc1ccccc1)S(=O)(=O)c1cccc2cccnc12 | -0.284
18 | Cc1noc(C(=O)NCc2ccccc2)c1Cl | -0.324
19 | CCOc1ccc2c(c1)C(=NNC(=O)c1ccncc1)c1cc(OCC)ccc1-2 | 0.597
20 | CCCCN(CC)C(=O)c1cccc(Cl)c1 | 0.112
21 | O=C(NCC(c1ccco1)N1CCN(c2ccccc2F)CC1)OCc1ccccc1 (stereo not drawn) | -0.578
22 | Cc1ccnc(NC(=O)c2ccccc2NC(=O)C(C)(C)C)c1 | -0.256
23 | Cc1nc2c3ccccc3[nH]c(=O)n2n1 | -0.192

Row | Compound | z-score
24 | CCOc1ccc(C(O)Cc2nc3ccccc3n2C)cc1 (stereo not drawn) | -0.214
25 | CN(NC(=O)NN)c1ncc(C(F)(F)F)cc1Cl | 0.252
26 | O=C(CSc1ncc(-c2ccccc2)[nH]1)Nc1ccccc1 | -0.481
27 | COc1ccc(-c2cc(C(F)F)n3ncc(C(=O)n4ccnc4C)c3n2)cc1 | -0.329
28 | O=C(NCCC1=CCCCC1)C1CCCN(S(=O)(=O)c2cccnc2)C1 (stereo not drawn) | 0.742
29 | C/C(=N\n1c(C)cc(C)c(C#N)c1=O)c1cccs1 | -0.0993
30 | CC(C)(C)c1ccc(C(=O)CCCSC2=C(C#N)C(c3ccco3)C3=C(CCCC3=O)N2)cc1 (stereo not drawn) | 0.202
31 | Clc1ccc(OCc2nnc(-c3ccccc3Br)o2)cc1 | -0.412
32 | O=C(CSc1nc2ccccc2[nH]1)Nc1ccccc1F | 0.0383
33 | COc1cccc(Nc2ncccc2C(=O)O)c1 | 0.133
34 | N#CC1=C2SCN(Cc3ccccc3)CN2C(=O)CC1c1ccc2c(c1)OCO2 (stereo not drawn) | 0.576
35 | CCCn1nnnc1NCc1ccccc1OCc1ccc(F)cc1 | -0.956
36 | Cc1ccc(O)c(C(=O)/C=C/c2ccc3c(c2)OCCCO3)c1 | 0.653
37 | Cc1ccc(CCNC(=O)C2CCCN(S(=O)(=O)c3c(C)nn(C)c3C)C2)cc1 (stereo not drawn) | 0.839
38 | CCC(=O)N1Cc2ccccc2-c2ccccc2C1=O | -0.718
39 | CC1(C)NC(=O)NC2(C)NC(=O)NC(C)(C)C12 (stereo not drawn) | active: -4.86
40 | O=c1c2[nH]c3ccccc3c2ncn1C1CCCCC1 | 0.256
41 | Cc1c(C(=O)N2CCN(S(C)(=O)=O)CC2)oc2ccccc12 | -0.216
42 | Cc1cccn2c(=O)c3cc(C(=O)NCCN4CCOCC4)c(=N)n(CCc4ccccc4)c3nc12 | -0.0779
43 | O=S(=O)(c1ccccc1)c1cnn(-c2ccccc2)c1-c1ccc(F)cc1 | -0.165
44 | Cc1sc(NC(=O)c2ccc(Br)s2)c(C(N)=O)c1C | 0.0217
45 | COC(=O)CC1COc2ccccc2N1C(=O)c1ccc(OC)cc1 (stereo not drawn) | -0.081
46 | O=C(N/N=C/c1c(Cl)[nH]c2ccccc12)c1sc2ccccc2c1Cl | -0.189

Row | Compound | z-score
47 | O=C(CSc1nnnn1-c1ccccc1)NCc1ccco1 | -0.769
48 | O=C(Nc1ccc2c(c1)oc1ccccc12)c1ccc2c(c1)OCO2 | 0.81
49 | CCC(=NCc1ccccc1)c1c(C(F)(F)F)[nH]n(-c2nc3ccccc3s2)c1=O | -0.629
50 | Nc1c(N2CCCCC2)c(=O)[nH]c(=O)n1-c1ccccc1 | 0.241
51 | CCN(CC(O)CON=C1c2ccccc2-c2ccccc21)S(=O)(=O)c1ccc(C)cc1 (stereo not drawn) | -0.273
52 | Nc1cc(N)nc(SCCOc2ccccc2)n1 | 0.723
53 | COc1ccc(N(CC(=O)Nc2ccc3c(c2)OCO3)S(=O)(=O)c2ccc(F)cc2)cc1 | -0.147
54 | O=C(NCC1CCCO1)c1cccc(Br)c1 (stereo not drawn) | 0.348
55 | Cc1cc(C)c(NC(=O)CN2C(=O)NC3(CCCCC3)C2=O)c(Cl)c1 | -0.23
56 | O=C(c1ccco1)n1c(=S)nc2ccccn21 | 0.588
57 | COc1ccc([N+](=O)[O-])cc1NC(=O)CSc1ccccc1 | -0.482
58 | O=C(CSc1ccccc1C(=O)NCCCN1CCCC1=O)NCc1ccco1 | 0.246
59 | CC(=O)Nc1ccc(OCC(O)CN2CCN(Cc3ccccc3)CC2)cc1 (stereo not drawn) | 1.32
60 | O=C(CN(c1ccccc1)S(=O)(=O)c1ccccc1)NCCSc1nc2ccccc2s1 | -0.129
61 | Clc1ccc(Oc2nnnn2-c2ccccc2)cc1 | -0.47
62 | CN(C)S(=O)(=O)c1cccc(C(=O)OCC(=O)Nc2ccccc2OC(F)F)c1 | 0.0874
63 | C#CCOC(=O)CCCNc1ccc([N+](=O)[O-])cc1[N+](=O)[O-] | -0.102
64 | O=C(O)Cn1cc2c(n1)CCCC2 | -0.125
65 | CCCNc1c(F)c(F)c2c(C)c3ccccc3nc2c1F | -0.741
66 | O=C1/C(=C\c2ccccn2)SC(=S)N1Nc1ncc(C(F)(F)F)cc1Cl | active: 3.17
67 | Cc1ccc(NC(=O)NC(=S)NC(=O)c2ccccc2)cc1 | 1.68
68 | CCOc1ccc(NC(=O)C2CC(=O)N3CCCN=C3S2)cc1 (stereo not drawn) | -0.444
69 | COc1ccc(/C=C/C(=O)Nc2nc(N)n(-c3ccccc3)n2)cc1 | -0.0927

Row | Compound | z-score
70 | COc1ccc(C(=O)NC(=S)Nc2cc3oc4ccccc4c3cc2OC)cc1 | -0.278
71 | O=C1CSC(c2ccccn2)N1c1ccc(Cl)c(Cl)c1 (stereo not drawn) | -0.103
72 | O=C(c1ccncc1)N1CCN(c2cccc(C(F)(F)F)c2)CC1 | 0.0507
73 | COc1ccc(C(=O)Nc2oc(-c3ccccc3)c(-c3ccccc3)c2C#N)cc1 | -0.265
74 | COc1ccccc1N(CC(O)CN1C(=O)NC(C)(C)C1=O)S(=O)(=O)c1ccc(C)cc1 (stereo not drawn) | -0.247
75 | Cc1nc(N)sc1-c1nnc(SCC(=O)Nc2ccccc2C(F)(F)F)n1C | -0.15
76 | O=C(CCN1CCCCC1)Nc1cccc(Cl)c1 | 0.437
77 | CC(C)c1nc2ccccc2n1CCC(=O)O | -0.0842
78 | CCC(Sc1nc(C)cc(=O)[nH]1)C(=O)Nc1nc2c(s1)CCCC2 (stereo not drawn) | -1.56
79 | CN(Cc1ccccc1)C(=O)c1oc(=O)c2ccccc2c1-c1ccccc1 | -0.543
80 | Cc1ccc(S(=O)(=O)NCCNC(=O)C2CCCNC2=O)cc1 (stereo not drawn) | 2.41
81 | C/C=C/C(=O)OCC(=O)Nc1nc2ccc(C)cc2s1 | 0.196
82 | CC(=O)NC(Cc1ccc(C(C)C)cc1)C(=O)NC1CCN(c2nc(C)cc(C)n2)CC1 (stereo not drawn) | 0.108
83 | COc1ccc(CCNC(=O)CSc2nc(-c3ccc(OC)c(OC)c3)ccc2C#N)cc1 | -0.18
84 | CC(=O)Nc1ccc(NC(=O)c2ccccc2S(=O)(=O)c2ccccc2[N+](=O)[O-])cc1 | 1.36
85 | COCCNC(=O)CN(C(=O)Cn1nnc2ccccc21)c1ccc(F)c(Cl)c1 | 0.102
86 | Clc1ccc(-c2nnc(SCc3cn4ccsc4n3)n2CC2CCCO2)cc1 (stereo not drawn) | -0.00653
87 | CCc1ccccc1N1C(=O)c2cccc3c(N4CCOCC4)c([N+](=O)[O-])cc(c23)C1=O | -0.147
88 | CN1CCN(CCC(=O)N2c3ccccc3Sc3ccc(C(F)(F)F)cc32)CC1 | 1.11
89 | COCCOc1nc2ccccc2nc1C | -0.251
90 | Cc1cccc2cc(=O)[nH]c(C)c12 | 0.0682
91 | Cc1ccc(C2=NNC(C(O)C(O)C(O)C(C)O)S2)cc1 (stereo not drawn) | -0.0357
92 | O=C(COc1ccc(S(=O)(=O)N2CCCC2)cc1Cl)NCc1ccc2c(c1)OCO2 | 0.364

Row | Compound | z-score
93 | Cc1ccc[n+](CC(=O)Nc2cc(C(F)(F)F)ccc2Cl)c1 | 0.0194
94 | O=C1c2oc3ccccc3c(=O)c2C(c2cccnc2)N1Cc1ccco1 (stereo not drawn) | 0.788
95 | CN(C)S(=O)(=O)c1ccc(NC(=O)N2CCN(c3ccccc3)CC2)cc1 | 0.322
96 | O=C(COc1cc(Cl)c(Cl)cc1Cl)NC(=O)Nc1ccc2c(c1)OCCO2 | -0.118
97 | CSc1nc2nccc(-c3ccc(-c4ccccc4)cc3)n2n1 | -0.5
98 | CCOC(=O)c1sc(N)nc1C(C)C | -4.56e-05
99 | Cc1ccc(C)c(NC(=S)NNC(=O)c2csc3c2CCCC3)c1 | active: 7.26
100 | CCOC(=O)N1CCN(C(=O)NC2CCCCC2)CC1 | 0.782
101 | CC(=O)Oc1ccc(N(C(C)=O)S(=O)(=O)c2cccs2)cc1 | -0.202
102 | CCOC(=O)N1CCC(N2Cc3cccc(C(=O)Nc4ccc(OC)c(OC)c4)c3C2=O)CC1 | -0.721
103 | Cc1cc(OC(=O)c2ccc(Cl)cc2)cc(=O)n1C | -0.527
104 | CCCn1cnc2cc(NCc3cccc(OC)c3)ccc21 | -0.0355
105 | COc1ccccc1-c1nnc2sc(COc3ccc(Cl)cc3)nn12 | -0.124
106 | CCOC(=O)c1c(C)[nH]c2c1cc(O)c1ccccc12 | active: 4.58
107 | CC1(C)Oc2ccc3ccc(=O)oc3c2-c2cn[nH]c21 | -0.305
108 | CC(C)Cn1c(N)c(C(=O)CSc2nc3ccccc3n2C)c(=O)n(C)c1=O | -0.037
109 | COCCN(C(=S)Nc1cc(C)cc(C)c1)C(C)c1cccnc1 (stereo not drawn) | -0.354
110 | Cn1c2ccc(F)cc2c2ncn(CCN3CCOCC3)c(=O)c21 | -0.252
111 | CC(C)OC(=O)C1C2C=CC3(CN(C(C)c4ccc(Br)cc4)C(=O)C13)O2 (stereo not drawn) | 0.295
112 | COc1ccc(CCNC(=O)C2CCN(S(=O)(=O)c3c(C)noc3C)CC2)cc1OC | 0.824
113 | C=CCc1cc(C=O)cc(OC)c1OCc1c(Cl)cccc1Cl | -0.298
